The test system of the data set is ATP. The experiment in a line: switch fluorescence ratio, 500 uM ATP over buffer (Cy3 cluster intensity, sum of 5 cycles each) (fold (ratio)); higher = stronger signal-on switching upon ATP binding; sequences stand for … in TCGTCGGCAGCGTCAGATGTGTATAAGAGACAGTTTTTTTTTTTTTTTTTTTTTTTTT…TC. The note with it: aptamer strand: ATP DNA aptamer (quencher-CACCTGGGGGAGTATTGCGGAGGAAGG + anchor), 100 nM annealed; ATP concentration: 500 uM; one replicate. A digest of the protocol: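 Cy3-labelled switching-strand clusters on a modified Illumina MiSeq flow-cell were annealed to 100 nM quencher-labelled ATP aptamer and imaged first in selection buffer, then after 15 min with 500 uM ATP at 22 °C. NaOH stripping and re-annealing separated each of five buffer/ATP cycles, and clusters outside 100-1000 RFU were excluded. The fluorescence ratio sums target-cycle Cy3 intensity over buffer-cycle Cy3 intensity per cluster and averages it per switch-domain sequence.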

Values marked as one replicate rest on one cluster of the flow cell; about a third of the high ones do not repeat.
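Note: ATP exposure 15 min at 22 °C before imaging.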

Turning to GACAGTTCT, the switch fluorescence ratio was found to be 1.03.

In the case of GGTTGCGGG, the switch fluorescence ratio was 0.926.

Take ATGCGCCTAA: the switch fluorescence ratio was 0.984.

As to TCGTCGAGAT, the switch fluorescence ratio was 1.02.

Regarding GGTCAAGGAT, the switch fluorescence ratio was 0.95.

With AGAGTCTGAA, the switch fluorescence ratio amounted to 0.975.

Regarding TGTGACGTTA, the switch fluorescence ratio was 1.04.

With GTGGGGTGAG, the switch fluorescence ratio came out at 1.06.

Turning to GATGATTCCT, the switch fluorescence ratio stood at 1.07.

For the sequence GTTGCGATCT, the switch fluorescence ratio was 0.922.

As for TTTTATGTAG, the switch fluorescence ratio turned out to be 0.999.

Take TTAAAGCTA: the switch fluorescence ratio was found to be 1.02.

Turning to TTAGAAAATG, the switch fluorescence ratio worked out at 0.985.

For the sequence CCGACACCGT, the switch fluorescence ratio stood at 1.28.

As to TCATTCAAG, the switch fluorescence ratio was found to be 1.01.

With CCTTTTACAC, the switch fluorescence ratio was 1.03.

As for GTTCTAGCGG, the switch fluorescence ratio was 0.961.

Regarding GCTGGTTGGA, the switch fluorescence ratio was determined as 1.01.

Regarding TCAACTGACG, the switch fluorescence ratio stood at 1.01.

As to ATTATCTTCA, the switch fluorescence ratio worked out at 1.03.

With TTACTTAGAA, the switch fluorescence ratio was found to be 0.959.

As for CCGCGAAACG, the switch fluorescence ratio was determined as 5.67.

As to ACGGCCACGT, the switch fluorescence ratio is 1.03.

Regarding CTTTTTTGTG, the switch fluorescence ratio was found to be 1.01.

Consider CTAAATGATC, for which the switch fluorescence ratio is 1.08.

For GCGGTCACAT, the switch fluorescence ratio amounted to 1.

Take ATTATTCTAT: the switch fluorescence ratio worked out at 1.02.

Turning to GCCACTGACA, the switch fluorescence ratio stood at 1.15.

For CACACTCTGC, the switch fluorescence ratio was found to be 1.08.

Consider GATATCTCCG, for which the switch fluorescence ratio came out at 1.15.

As to ATTACTAAAG, the switch fluorescence ratio was 1.05.

In the case of GAAGTTTGAA, the switch fluorescence ratio was found to be 0.988.

As for TTCTGAGTTT, the switch fluorescence ratio worked out at 0.989.

For GTTCACGGTC, the switch fluorescence ratio was determined as 1.02.

Consider TTTGCGGGAG, for which the switch fluorescence ratio turned out to be 1.

Regarding TGACGATGTG, the switch fluorescence ratio turned out to be 0.977.

With TGCCTCAAGA, the switch fluorescence ratio came to 1.25.

Take AAGCGGGTAC: the switch fluorescence ratio stood at 1.16.

For CGCCGTTTGG, the switch fluorescence ratio came to 1.01.

For AAAGGAGAAG, the switch fluorescence ratio was determined as 0.989.

For the sequence AGGCCAGACT, the switch fluorescence ratio is 1.04.

Turning to GTCAGATTCC, the switch fluorescence ratio came to 1.06.

With CGTCGGTAAC, the switch fluorescence ratio is 1.31.

Turning to TTTTCAGCGG, the switch fluorescence ratio came to 1.03.

Take CATAATAAAC: the switch fluorescence ratio stood at 1.01.

Consider CTGGGATGA, for which the switch fluorescence ratio was 0.966.

In the case of AAATAAGC, the switch fluorescence ratio came to 0.945.

As to TTTTCCGTA, the switch fluorescence ratio is 0.967.

Take ACGGAAGACA: the switch fluorescence ratio came out at 1.17.

Take AAGCGCCTGG: the switch fluorescence ratio was determined as 0.99.

With CAACACCGGG, the switch fluorescence ratio came to 1.18.

On to CAAGGTCGTG, for which the switch fluorescence ratio amounted to 0.974.

For ATACAGGGTT, the switch fluorescence ratio was found to be 1.09.

Consider TAGGGACGGT, for which the switch fluorescence ratio was 1.1.

On to TATCCAGAGT, for which the switch fluorescence ratio came out at 1.

As for AACCTCCCCC, the switch fluorescence ratio worked out at 2.09.

Turning to CAGGTGAAGG, the switch fluorescence ratio is 1.15.

In the case of TCGGGAGT, the switch fluorescence ratio is 1.02.

Regarding TAAAAGGAGT, the switch fluorescence ratio stood at 1.01.

With AATTGTCTAC, the switch fluorescence ratio worked out at 1.01.

ACGCGGAGGG: the switch fluorescence ratio was 1.06.

As for GCAGTGATTG, the switch fluorescence ratio was found to be 1.04.

As for GTGTAGGTG, the switch fluorescence ratio is 1.06.

Take AGCTTTTGTA: the switch fluorescence ratio was found to be 0.985.

With TCCGTTTGCG, the switch fluorescence ratio worked out at 1.01.

For ATATGTCGTG, the switch fluorescence ratio is 0.953.

Regarding AGCCGTCGAT, the switch fluorescence ratio came out at 0.994.

The values are drawn from the supplement of paper PMC10126150.
